# Source: PMC10874384
# Sequences of proteins named here, by UniProt entry; tags and fusion partners are left off.
# UniProt Q09490: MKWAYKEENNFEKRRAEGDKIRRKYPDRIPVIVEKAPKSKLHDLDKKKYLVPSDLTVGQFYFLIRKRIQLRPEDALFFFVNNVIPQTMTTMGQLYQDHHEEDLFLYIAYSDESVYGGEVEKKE
# Results are given in words; binding and its absence hold for the method and conditions named. For some assays here: In cells and extracts the contact can be indirect. Some binding calls cover weakened binding; strength is not graded here. Sequences can lack the tags named with a protein.
# T1: EPG-7 C-terminal fragment (residues 1227-1338, Claw domain), yeast two-hybrid fusion (C. elegans) (UniProt Q22342)
# T1 sequence: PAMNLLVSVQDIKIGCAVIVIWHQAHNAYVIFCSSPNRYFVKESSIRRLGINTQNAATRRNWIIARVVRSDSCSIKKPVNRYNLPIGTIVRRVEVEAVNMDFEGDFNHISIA
# T2: FLAG-EPG-7 C-term (N-terminal FLAG-tagged EPG-7 C-terminal fragment, Claw domain) (C. elegans) (UniProt Q22342)
# T2 sequence: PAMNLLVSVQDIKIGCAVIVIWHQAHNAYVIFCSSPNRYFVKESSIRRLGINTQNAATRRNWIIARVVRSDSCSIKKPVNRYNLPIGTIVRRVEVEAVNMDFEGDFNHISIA
# How the values were obtained:
# [1] = target: T1, EPG-7 C-terminal fragment (residues 1227-1338, Claw domain), yeast two-hybrid fusion (C. elegans); test: two-hybrid; DupLEX-A system: bait plasmid pEG202Gtwy and prey plasmid pJG4-5Gtwy in yeast EGY48 with the lacZ reporter plasmid pSH18-34; transformants on X-gal plates; which partner was bait is not stated
# [2] = target: LGG-1 (LC3, GABARAP, and GATE-16 family-1), yeast two-hybrid fusion (C. elegans) (UniProt Q09490); test: as above
# [3] = target: T2, FLAG-EPG-7 C-term (N-terminal FLAG-tagged EPG-7 C-terminal fragment, Claw domain) (C. elegans); test: pull-down; in vitro binding assay: purified FLAG-EPG-7 C-term (about 0.5 ug) and in vitro translated T7-ALLO-1b (4 uL) in 10 mM Tris-HCl pH 7.4, 150 mM NaCl, 0.5 mM EDTA, 0.1% Triton X-100, 1 mM PMSF, 4 C, 1 h; captured on anti-FLAG M2 magnetic beads; blot with anti-T7 and anti-FLAG; only the target purified
Binder,binding [1],binding [2],binding [3]
"T7-ALLO-1b (full-length ALLO-1b, in vitro translated) (protein, UniProt Q9U389 1-402) MNDPLDSLSNDEFEIIETFDPETEDREDQWSIQQSIRIEPISIQMPNTLQSQRAPSPVGSKAPESLKDEDPDRTPEASIVETPLLTETLKEDRTPMSTPLASLVNSSQSPEFTLQNMSIVSESECSNNSSLVNVADVESTEIALRTSLLLVSELKSQLQAAKMSESTLLKSNSNHEIEENKKLSEKMEVMKNEFELKMQESAASVEKVIQEKDSAIEQLKVQLAQSQQVAELWKQGAEKNSNAQYSDSKTTIDRLLEENSKLRNLVDEEVARRLEESERRKLAEDQLKHARGGSVFDPPASFVASQLAERTTYSLNLEHELITLRKELEETKEALKKSVEESSNKDEIVSALHELAGPTGEHPHARFERAGDQQSEAEMSSTWSAGRLLELSRQIVHFISHQ",–,–,binds
"T7-ALLO-1b D11A/E12A (FIR mutant, in vitro translated) (protein, UniProt Q9U389 1-402) MNDPLDSLSNAAFEIIETFDPETEDREDQWSIQQSIRIEPISIQMPNTLQSQRAPSPVGSKAPESLKDEDPDRTPEASIVETPLLTETLKEDRTPMSTPLASLVNSSQSPEFTLQNMSIVSESECSNNSSLVNVADVESTEIALRTSLLLVSELKSQLQAAKMSESTLLKSNSNHEIEENKKLSEKMEVMKNEFELKMQESAASVEKVIQEKDSAIEQLKVQLAQSQQVAELWKQGAEKNSNAQYSDSKTTIDRLLEENSKLRNLVDEEVARRLEESERRKLAEDQLKHARGGSVFDPPASFVASQLAERTTYSLNLEHELITLRKELEETKEALKKSVEESSNKDEIVSALHELAGPTGEHPHARFERAGDQQSEAEMSSTWSAGRLLELSRQIVHFISHQ",–,–,no binding

# Further lines, results first:
binding [1],binding [2],binding [3],Binder
binds,–,–,"ALLO-1 N-terminal region (residues 1-180), yeast two-hybrid fusion (domain or fragment, UniProt Q9U389 1-180) MNDPLDSLSNDEFEIIETFDPETEDREDQWSIQQSIRIEPISIQMPNTLQSQRAPSPVGSKAPESLKDEDPDRTPEASIVETPLLTETLKEDRTPMSTPLASLVNSSQSPEFTLQNMSIVSESECSNNSSLVNVADVESTEIALRTSLLLVSELKSQLQAAKMSESTLLKSNSNHEIEEN"
binds,binds,–,"ALLO-1b (allophagy-1 isoform b), full length, yeast two-hybrid fusion (protein, UniProt Q9U389 1-402) MNDPLDSLSNDEFEIIETFDPETEDREDQWSIQQSIRIEPISIQMPNTLQSQRAPSPVGSKAPESLKDEDPDRTPEASIVETPLLTETLKEDRTPMSTPLASLVNSSQSPEFTLQNMSIVSESECSNNSSLVNVADVESTEIALRTSLLLVSELKSQLQAAKMSESTLLKSNSNHEIEENKKLSEKMEVMKNEFELKMQESAASVEKVIQEKDSAIEQLKVQLAQSQQVAELWKQGAEKNSNAQYSDSKTTIDRLLEENSKLRNLVDEEVARRLEESERRKLAEDQLKHARGGSVFDPPASFVASQLAERTTYSLNLEHELITLRKELEETKEALKKSVEESSNKDEIVSALHELAGPTGEHPHARFERAGDQQSEAEMSSTWSAGRLLELSRQIVHFISHQ"
